Laboratory results taken from the supplement of paper PMC12217912.
The list shows a part of the results. Sequences were assembled here from the parent chain. Values near 0.05 are background.

B1: TEV protease; numbered along this chain (parent)
chain: MGESLFKGPRDYNPISSSICHLTNESDGHTTSLYGIGFGPFIITNKHLFRRNNGTLVVQSLHGVFKVKDTTTLQQHLVDGRDMIIIRMPKDFPPFPQKLKFREPQREERICLVTTNFQTKSMSSMVSDTSCTFPSGDGIFWKHWIQTKDGQCGSPLVSTRDGFIVGIHSASNFTNTNNYFTSVPKNFMELLTNQEAQQWVSGWRLNADSVLWGGHKVFMVKPEEPFQPVKEATQL

Variants of: B1
Test: raw area under fraction-flipped curve 0-4 h after induction (AUC4h, not background-subtracted), DNA-recorder readout of cleavage of the substrate (dimensionless); higher = more cleavage of the substrate by the protease variant
Conditions: temperature: 34 °C; time window: 0-4 h after rhamnose induction
Method: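 In vivo DNA recorder in E. coli TOP10(DE3) ΔrhaA at 34 °C. Each TEVp single-site mutant (parent TEVp 0) is paired with a single-site variant of the 7-mer TEVs (canonical ENLYFQ|S). The substrate sits between flexible linkers in a Bxb1-sfGFP-TEVs-SsrA fusion, so cleavage stabilises Bxb1 and speeds flipping of a recombination array, read by NGS. The value is the raw area under the fraction-flipped curve over 0-4 h after rhamnose induction (AUC4h), with ≥20 reads per time point. It is not background-subtracted; inactive controls average about 0.047.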
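Also: Bxb1 expression induced with 0.2% (w/v) L-rhamnose at OD600 near 0.5, cultures sampled hourly, flipped fraction per protease–substrate barcode pair counted by paired-end Illumina sequencing.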

| Variant | area with substrate ENLYAQS | area with substrate ENLYCQS | area with substrate ENLYEQS | area with substrate ENLYGQS | area with substrate ENLYHQS | area with substrate ENLYKQS | area with substrate ENLYNQS | area with substrate ENLYPQS | area with substrate ENLYRQS | area with substrate ENLYVQS | area with substrate ENLYWQS | area with substrate ENLYDQS | area with substrate ENLYIQS | area with substrate ENLYMQS | area with substrate ENLYQQS | area with substrate ENLYSQS | area with substrate ENLYLQS | area with substrate ENLYTQS | area with substrate ENLYYQS |
| --- | --- | --- | --- | --- | --- | --- | --- | --- | --- | --- | --- | --- | --- | --- | --- | --- | --- | --- | --- |
| P222E | 0.0854 | 0.0874 | 0.0661 | 0.0702 | 0.0689 | 0.0623 | 0.0616 | 0.0725 | 0.0587 | 0.113 | 0.081 |  |  |  |  |  |  |  |  |
| N45F | 0.0608 |  | 0.0623 |  | 0.0647 | 0.0628 |  |  | 0.069 | 0.0538 | 0.0646 | 0.0753 | 0.0659 | 0.0664 | 0.0618 | 0.0451 |  |  |  |
| L73W | 0.0971 | 0.0586 |  |  | 0.0613 | 0.0416 | 0.0574 |  | 0.0597 | 0.0822 |  |  |  | 0.0634 |  |  | 0.0678 |  |  |
| R10Q | 0.06 |  | 0.0677 | 0.0637 | 0.0618 | 0.0748 | 0.0616 | 0.0851 |  | 0.114 | 0.0755 | 0.0516 | 0.137 |  | 0.0894 |  | 0.0711 | 0.077 |  |
| P225V | 0.0882 |  | 0.0647 | 0.0676 | 0.068 | 0.0586 | 0.0692 | 0.0733 | 0.0572 | 0.0758 | 0.0763 | 0.053 | 0.127 | 0.0666 |  | 0.0545 |  | 0.113 | 0.0705 |
| N206S | 0.0723 | 0.119 |  |  | 0.0614 | 0.0651 |  |  |  | 0.155 | 0.0837 | 0.0623 |  | 0.0824 | 0.0648 |  | 0.0969 |  | 0.0507 |
| G150Q | 0.0642 | 0.0643 | 0.0566 | 0.0731 | 0.0507 | 0.0639 |  | 0.0609 | 0.0661 |  | 0.0768 | 0.0602 |  | 0.0734 | 0.058 |  |  |  |  |
| N24M | 0.0563 | 0.117 | 0.063 | 0.0586 |  |  | 0.0719 | 0.0883 |  | 0.0847 | 0.0838 | 0.0636 | 0.103 |  | 0.0781 | 0.0687 |  |  | 0.0252 |
| G138V | 0.0914 |  |  | 0.0631 | 0.0556 |  |  | 0.0641 | 0.0653 | 0.11 |  | 0.0606 | 0.0968 |  | 0.0586 |  | 0.0901 |  |  |
| D11N | 0.0776 |  | 0.0661 | 0.0626 |  | 0.0617 | 0.0658 | 0.0627 | 0.049 |  | 0.102 | 0.0655 | 0.127 | 0.0809 | 0.0662 | 0.0612 | 0.0684 |  | 0.0748 |
| Q194T | 0.0954 | 0.0844 | 0.063 | 0.072 | 0.0852 | 0.07 | 0.0729 | 0.0852 | 0.0739 | 0.119 | 0.123 | 0.0653 | 0.128 |  | 0.0623 |  |  | 0.0893 | 0.0599 |
| E25V | 0.0808 |  | 0.0693 | 0.0741 | 0.074 | 0.0582 | 0.0633 | 0.0727 |  | 0.106 | 0.0817 | 0.0555 | 0.092 | 0.0768 | 0.0608 | 0.0764 | 0.0652 | 0.0655 | 0.0759 |
| G2D | 0.0885 |  | 0.0803 | 0.0785 | 0.0677 | 0.0736 | 0.0636 | 0.0612 | 0.0586 | 0.101 |  | 0.0619 | 0.112 | 0.0884 | 0.0562 |  |  |  | 0.0514 |
| V113Q | 0.0597 | 0.0643 | 0.072 |  | 0.0605 | 0.0343 | 0.0585 | 0.0696 |  | 0.0633 |  | 0.0554 |  | 0.0544 | 0.0593 |  |  | 0.0655 | 0.0631 |
| E107H | 0.0455 |  |  | 0.0748 |  |  | 0.0756 | 0.0564 | 0.0574 |  | 0.0884 |  |  | 0.099 | 0.0559 |  |  |  |  |
| W199L | 0.0376 |  |  | 0.0679 |  |  |  |  | 0.0513 |  |  | 0.0768 | 0.0767 | 0.0725 | 0.0694 |  |  |  |  |
| I84F | 0.0476 |  |  | 0.0638 |  | 0.0518 | 0.0552 | 0.0614 | 0.035 | 0.064 | 0.0542 | 0.0558 |  | 0.0569 | 0.0615 | 0.0515 |  |  |  |
| W199R | 0.0676 | 0.0577 | 0.0665 | 0.0643 | 0.0569 | 0.0612 | 0.0733 | 0.0583 | 0.0569 | 0.0452 | 0.0592 | 0.0574 | 0.0497 | 0.0572 | 0.0549 |  | 0.0543 | 0.0664 |  |
| K68C | 0.0768 |  | 0.07 | 0.0654 | 0.0624 | 0.038 | 0.0784 | 0.0741 |  | 0.152 | 0.123 | 0.0518 |  | 0.0967 | 0.0666 | 0.0852 |  | 0.0695 | 0.0861 |
| P155H | 0.0503 | 0.0553 | 0.0541 | 0.0437 | 0.0493 | 0.0244 |  | 0.0519 | 0.0566 | 0.0291 |  | 0.0528 | 0.0609 | 0.0554 | 0.056 |  |  |  | 0.0489 |
| P155V | 0.0773 | 0.0899 | 0.0596 | 0.0595 | 0.0861 | 0.081 | 0.0545 | 0.0616 |  | 0.108 | 0.0733 |  | 0.102 |  | 0.0329 |  |  |  | 0.0492 |
| S18E | 0.0724 |  |  | 0.0641 | 0.0713 |  | 0.0615 | 0.0799 | 0.0605 | 0.137 | 0.0808 | 0.0618 | 0.144 | 0.0874 | 0.0448 |  |  | 0.0735 | 0.0623 |
| I36Q | 0.0333 | 0.0542 | 0.0535 | 0.0505 | 0.0808 | 0.0424 | 0.0523 |  | 0.0508 | 0.0646 | 0.0393 | 0.0434 | 0.0697 | 0.0565 | 0.0686 | 0.0554 |  |  |  |
| N52K | 0.052 |  |  | 0.0523 | 0.0498 | 0.0338 | 0.0589 | 0.0638 | 0.0604 |  | 0.0552 | 0.0616 | 0.108 | 0.054 | 0.0622 |  |  | 0.0739 | 0.054 |
| I167Y | 0.0557 |  | 0.0623 | 0.0629 | 0.0701 | 0.0665 | 0.06 |  | 0.066 | 0.0887 |  |  | 0.0688 |  |  |  |  | 0.066 |  |
| L211H | 0.0837 | 0.0971 | 0.0665 |  | 0.07 | 0.0709 | 0.0744 | 0.0667 |  |  | 0.0656 | 0.0743 | 0.111 |  |  |  |  | 0.101 |  |
| T30Q | 0.0628 |  | 0.0765 | 0.0693 | 0.073 | 0.0616 | 0.0706 | 0.0658 | 0.0584 |  | 0.0936 | 0.0601 | 0.0676 | 0.086 |  | 0.0734 |  |  | 0.0623 |
